# Experimental data from the supplement of paper PMC8728848.
# The other results are listed elsewhere or left out.
# B1: GS14009A-pdi-495-27-495 (Parabacteroides distasonis) (protein)
# chain: FEEVNTDPDSPTDVPTTNLLAYSLYYTSYRLYDRWFAMDEPMTFCGYASKMTYIDESRYNFRTGVQDTNWEYLYRILNNLKDIEKRATFNETPNMLNVSKVMQVHLMQVATDRWRDVPYTDAAKMTDGILQPKYDKQEDIYPGLLATLKEAADGFADGGSDDLGEGDLLFGGDIEKWQRYCNSMRLRLAMRISEVSPALAKETVEEVMGNPTKYPIMESNDDNAFFWWIGTDPNYYEPMADGYRTRKTEYCAADVIVDHMNTREDPRRSSYFQPTKESVEAGEPKYVGYTIGAKANAVASKYSIWGARFFTDLAGFSPYMRVAEPWFCVAEASMLGWNTGISAEDAYNKAVTYSMEENSVSAEDIADYLANAGKFTNDKKQIYYEEWVAMFKQGMEGWSLYRRTGVPDNLYPAPGRPANYSNHNVPPFRSPYPDKERNLNNANCAPFDAEVVDNLWGKQMWWDTRTGVH
# Assays:
# Test in all cases: glycan array binding signal (z-score within array); higher = stronger binding
# Conditions in all cases: glycan notation: IUPAC condensed, linker removed
# [1] = target: GlcNAc(b1-3)Gal(b1-4)GlcNAc(b1-3)Gal(b1-4)GlcNAc(b1-2)Man(a1-3)[GlcNAc(b1-3)Gal(b1-4)GlcNAc(b1-3)Gal(b1-4)GlcNAc(b1-2)Man(a1-6)]Man(b1-4)GlcNAc(b1-4)[Fuc(a1-6)]GlcNAc
# How it was run: (§1)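 Glycan array data were curated from 3228 arrays in the Consortium for Functional Glycomics database and kept only where the protein sequence was available. Glycan names were converted to IUPAC-condensed notation, and columns mapping to the same glycan were averaged. The binding signal is a within-array Z-score, averaged across arrays of the same protein sequence at different concentrations or buffers and across linkers. Negative Z-scores can be read as non-binding.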
# [2] = target: GlcNAc(b1-3)Gal(b1-4)GlcNAc(b1-3)Gal(b1-4)GlcNAc(b1-2)[GlcNAc(b1-3)Gal(b1-4)GlcNAc(b1-3)Gal(b1-4)GlcNAc(b1-6)]Man(a1-6)[GlcNAc(b1-3)Gal(b1-4)GlcNAc(b1-3)Gal(b1-4)GlcNAc(b1-2)Man(a1-3)]Man(b1-4)GlcNAc(b1-4)[Fuc(a1-6)]GlcNAc
# How it was run: as §1
# [3] = target: GlcNAc(b1-3)Gal(b1-4)GlcNAc(b1-3)Gal(b1-4)GlcNAc(b1-3)Gal(b1-4)GlcNAc(b1-2)Man(a1-3)[GlcNAc(b1-3)Gal(b1-4)GlcNAc(b1-3)Gal(b1-4)GlcNAc(b1-3)Gal(b1-4)GlcNAc(b1-2)Man(a1-6)]Man(b1-4)GlcNAc(b1-4)GlcNAc
# How it was run: as §1
# [4] = target: GlcNAc(b1-3)Gal(b1-4)GlcNAc(b1-3)Gal(b1-4)GlcNAc(b1-3)Gal(b1-4)GlcNAc(b1-2)Man(a1-3)[GlcNAc(b1-3)Gal(b1-4)GlcNAc(b1-3)Gal(b1-4)GlcNAc(b1-3)Gal(b1-4)GlcNAc(b1-2)Man(a1-6)]Man(b1-4)GlcNAc(b1-4)[Fuc(a1-6)]GlcNAc
# How it was run: as §1
# [5] = target: GlcNAc(b1-3)Gal(b1-4)GlcNAc(b1-3)Gal(b1-4)GlcNAc(b1-3)Gal(b1-4)GlcNAc(b1-2)[GlcNAc(b1-3)Gal(b1-4)GlcNAc(b1-3)Gal(b1-4)GlcNAc(b1-3)Gal(b1-4)GlcNAc(b1-6)]Man(a1-6)[GlcNAc(b1-3)Gal(b1-4)GlcNAc(b1-3)Gal(b1-4)GlcNAc(b1-3)Gal(b1-4)GlcNAc(b1-2)Man(a1-3)]Man(b1-4)GlcNAc(b1-4)[Fuc(a1-6)]GlcNAc
# How it was run: as §1
# [6] = target: GlcNAc(b1-3)Gal(b1-4)GlcNAc(b1-3)Gal(b1-4)GlcNAc(b1-3)Gal(b1-4)GlcNAc(b1-3)Gal(b1-4)GlcNAc(b1-2)Man(a1-3)[GlcNAc(b1-3)Gal(b1-4)GlcNAc(b1-3)Gal(b1-4)GlcNAc(b1-3)Gal(b1-4)GlcNAc(b1-3)Gal(b1-4)GlcNAc(b1-2)Man(a1-6)]Man(b1-4)GlcNAc(b1-4)GlcNAc
# How it was run: as §1
# [7] = target: GlcNAc(b1-3)Gal(b1-4)GlcNAc(b1-3)Gal(b1-4)GlcNAc(b1-3)Gal(b1-4)GlcNAc(b1-3)Gal(b1-4)GlcNAc(b1-2)Man(a1-3)[GlcNAc(b1-3)Gal(b1-4)GlcNAc(b1-3)Gal(b1-4)GlcNAc(b1-3)Gal(b1-4)GlcNAc(b1-3)Gal(b1-4)GlcNAc(b1-2)Man(a1-6)]Man(b1-4)GlcNAc(b1-4)[Fuc(a1-6)]GlcNAc
# How it was run: as §1
# [8] = target: GlcNAc(b1-3)Gal(b1-4)GlcNAc(b1-3)Gal(b1-4)GlcNAc(b1-3)Gal(b1-4)GlcNAc(b1-3)Gal(b1-4)GlcNAc(b1-2)[GlcNAc(b1-3)Gal(b1-4)GlcNAc(b1-3)Gal(b1-4)GlcNAc(b1-3)Gal(b1-4)GlcNAc(b1-3)Gal(b1-4)GlcNAc(b1-6)]Man(a1-6)[GlcNAc(b1-3)Gal(b1-4)GlcNAc(b1-3)Gal(b1-4)GlcNAc(b1-3)Gal(b1-4)GlcNAc(b1-3)Gal(b1-4)GlcNAc(b1-2)Man(a1-3)]Man(b1-4)GlcNAc(b1-4)[Fuc(a1-6)]GlcNAc
# How it was run: as §1
# [9] = target: GlcNAc(b1-3)Gal(b1-4)GlcNAc(b1-3)Gal(b1-4)GlcNAc(b1-3)GalNAc
# How it was run: as §1
# [10] = target: GlcNAc(b1-3)Gal(b1-4)GlcNAc(b1-3)GalNAc
# How it was run: as §1
# [11] = target: GlcNAc(b1-3)Gal(b1-4)GlcNAc(b1-3)[GlcNAc(b1-3)Gal(b1-4)GlcNAc(b1-3)]GalNAc
# How it was run: as §1
# [12] = target: GlcNAc(b1-3)Gal(b1-4)GlcNAc(b1-6)[Gal(b1-3)]GalNAc
# How it was run: as §1
# [13] = target: GlcNAc(b1-3)Gal(b1-4)GlcNAc(b1-6)[GlcNAc(b1-3)Gal(b1-3)]GalNAc
# How it was run: as §1
# [14] = target: GlcNAc(b1-3)Gal(b1-4)GlcNAc(b1-6)[GlcNAc(b1-3)]Gal(b1-4)GlcNAc
# How it was run: as §1
# GlcNAc(b1-3)GalNAc = target: GlcNAc(b1-3)GalNAc
# How it was run: as §1
# GlcNAc(b1-3)Man = target: GlcNAc(b1-3)Man
# How it was run: as §1
# [15] = target: GlcNAc(b1-3)[GlcNAc(b1-4)][GlcNAc(b1-6)]GlcNAc
# How it was run: as §1
# [16] = target: GlcNAc(b1-3)[GlcNAc(b1-6)]Gal(b1-4)GlcNAc
# How it was run: as §1
# [17] = target: GlcNAc(b1-3)[GlcNAc(b1-6)]GalNAc
# How it was run: as §1
# [18] = target: GlcNAc(b1-4)Gal(b1-4)GlcNAc
# How it was run: as §1
# GlcNAc(b1-4)GlcNAc = target: GlcNAc(b1-4)GlcNAc
# How it was run: as §1
# [19] = target: GlcNAc(b1-4)GlcNAc(b1-4)GlcNAc
# How it was run: as §1
# [20] = target: GlcNAc(b1-4)GlcNAc(b1-4)GlcNAc(b1-4)GlcNAc(b1-4)GlcNAc
# How it was run: as §1
# [21] = target: GlcNAc(b1-4)GlcNAc(b1-4)GlcNAc(b1-4)GlcNAc(b1-4)GlcNAc(b1-4)GlcNAc
# How it was run: as §1
# [22] = target: GlcNAc(b1-4)[GlcNAc(b1-6)]GalNAc
# How it was run: as §1
# [23] = target: GlcNAc(b1-6)Gal(b1-4)GlcNAc
# How it was run: as §1
# GlcNAc(b1-6)GalNAc = target: GlcNAc(b1-6)GalNAc
# How it was run: as §1
# [24] = target: GlcNAc6S(b1-3)Gal(b1-4)GlcNAc
# How it was run: as §1
# Kdn(a2-3)Gal(b1-3)GalNAc = target: Kdn(a2-3)Gal(b1-3)GalNAc
# How it was run: as §1
# Kdn(a2-3)Gal(b1-3)GlcNAc = target: Kdn(a2-3)Gal(b1-3)GlcNAc
# How it was run: as §1
# Kdn(a2-3)Gal(b1-4)Glc = target: Kdn(a2-3)Gal(b1-4)Glc
# How it was run: as §1
# Kdn(a2-3)Gal(b1-4)GlcNAc = target: Kdn(a2-3)Gal(b1-4)GlcNAc
# How it was run: as §1
# [25] = target: Kdn(a2-3)Gal(b1-4)[Fuc(a1-3)]GlcNAc
# How it was run: as §1
# Kdn(a2-6)Gal(b1-4)GlcNAc = target: Kdn(a2-6)Gal(b1-4)GlcNAc
# How it was run: as §1
# [26] = target: Man(a1-2)Man(a1-2)Man(a1-3)Man
# How it was run: as §1
# [27] = target: Man(a1-2)Man(a1-2)Man(a1-6)[Man(a1-3)]Man
# How it was run: as §1
# Man(a1-2)Man(a1-3)Man = target: Man(a1-2)Man(a1-3)Man
# How it was run: as §1
# [28] = target: Man(a1-2)Man(a1-3)[Man(a1-2)Man(a1-6)]Man
# How it was run: as §1
binder,measurement,setting,value
B1,glycan array binding signal (z-score),[1],-0.494
same,glycan array binding signal (z-score),[2],2.44
same,glycan array binding signal (z-score),[3],0.141
same,glycan array binding signal (z-score),[4],0.061
same,glycan array binding signal (z-score),[5],0.442
same,glycan array binding signal (z-score),[6],0.141
same,glycan array binding signal (z-score),[7],0.509
same,glycan array binding signal (z-score),[8],0.104
same,glycan array binding signal (z-score),[9],0.219
same,glycan array binding signal (z-score),[10],-0.312
same,glycan array binding signal (z-score),[11],0.309
same,glycan array binding signal (z-score),[12],0.324
same,glycan array binding signal (z-score),[13],0.415
same,glycan array binding signal (z-score),[14],-0.022
same,glycan array binding signal (z-score),GlcNAc(b1-3)GalNAc,-0.78
same,glycan array binding signal (z-score),GlcNAc(b1-3)Man,0.188
same,glycan array binding signal (z-score),[15],-0.31
same,glycan array binding signal (z-score),[16],0.016
same,glycan array binding signal (z-score),[17],-0.513
same,glycan array binding signal (z-score),[18],-0.581
same,glycan array binding signal (z-score),GlcNAc(b1-4)GlcNAc,-0.5
same,glycan array binding signal (z-score),[19],-0.116
same,glycan array binding signal (z-score),[20],-0.453
same,glycan array binding signal (z-score),[21],-0.478
same,glycan array binding signal (z-score),[22],0.089
same,glycan array binding signal (z-score),[23],0.277
same,glycan array binding signal (z-score),GlcNAc(b1-6)GalNAc,0.174
same,glycan array binding signal (z-score),[24],0.785
same,glycan array binding signal (z-score),Kdn(a2-3)Gal(b1-3)GalNAc,-0.451
same,glycan array binding signal (z-score),Kdn(a2-3)Gal(b1-3)GlcNAc,-0.115
same,glycan array binding signal (z-score),Kdn(a2-3)Gal(b1-4)Glc,0.829
same,glycan array binding signal (z-score),Kdn(a2-3)Gal(b1-4)GlcNAc,-0.615
same,glycan array binding signal (z-score),[25],0.379
same,glycan array binding signal (z-score),Kdn(a2-6)Gal(b1-4)GlcNAc,-0.168
same,glycan array binding signal (z-score),[26],-0.58
same,glycan array binding signal (z-score),[27],-0.298
same,glycan array binding signal (z-score),Man(a1-2)Man(a1-3)Man,-0.63
same,glycan array binding signal (z-score),[28],-0.461
